Variants at the floor of the assay are shown more often than the library holds them.
B1: TPR 5TU (parent)
chain: GGAUCUUCUCGAUCUAACAAAAAAGACAAAUCUGCCACAAAGCUUGAGAGCAUCUUCGGAUGCAGAGGCGGCAGCCUUCGGUGGCGCGAUAGCGCCAACGUUCUCAACUAUGACACGCAAAACGCGUGCUCCGUUGAAUGGAGUUUAUCAUG

Variants of: B1
Assay: polymerase ribozyme fitness, log enrichment relative to wild type (log ratio); higher = more active; in vitro selection for triplet polymerase activity
Method in brief: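 Each subunit of a heterodimeric triplet polymerase ribozyme was mutagenized into a library by PCR, transcribed, and subjected to one round of in vitro selection, run in triplicate. Libraries were annealed with a biotinylated primer, the partner subunit and triplets, incubated frozen at −7 °C, and extended constructs were gel-excised, captured on streptavidin beads and recovered by RT-PCR. Input and output libraries were sequenced on Illumina, keeping genotypes with ≥10 input reads and ≥1 read per output. Fitness is log base 2 of genotype enrichment divided by wild-type enrichment, from inverse-variance-weighted replicate averages.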

Compared with A12G C96A U134C A138G G141C, A12G C96G U102C A121G G141A A150G is lower in “polymerase ribozyme fitness (log ratio)” value: -3.97 for the first, no more than -4.2 for the second.

Going from A12G C99G to A12G C116G, the “polymerase ribozyme fitness (log ratio)” value rises from -0.551 to 0.204.

First: A12G C116G G126U
Second: A12G G25A A26G A40U C57U C76A C93U C131A
The “polymerase ribozyme fitness (log ratio)” value of the first is higher: 1.17 for the first, no more than -4.2 for the second.

A12G G25A C87G C116A U148G and A12G G25C A66C C93G C129A cannot be ordered by “polymerase ribozyme fitness (log ratio)” value: no more than -4.2 for the first, no more than -4.2 for the second.

A12G G25U U53A G59C C96G C99U C116U G128A and A12G G34U C93U U144A U151G cannot be ordered by “polymerase ribozyme fitness (log ratio)” value: no more than -4.2 for the first, no more than -4.2 for the second.

A12G G34U U55A G59U C96G G126A and A12G G42C G92A C118U C123A cannot be ordered by “polymerase ribozyme fitness (log ratio)” value: no more than -4.2 for the first, no more than -4.2 for the second.

A12G G46A A49C G58A G88C C95A C108G and A12G G46C A60C C85G cannot be ordered by “polymerase ribozyme fitness (log ratio)” value: no more than -4.2 for the first, no more than -4.2 for the second.

A12G G48A G71A G86A G126U C131A G140U C149A A150G and A12G G50A A52G G83C A91C cannot be ordered by “polymerase ribozyme fitness (log ratio)” value: no more than -4.2 for the first, no more than -4.2 for the second.

A12G G50A G74A C96U G128A and A12G G50A G83A A91G C108A A121C cannot be ordered by “polymerase ribozyme fitness (log ratio)” value: no more than -4.2 for the first, no more than -4.2 for the second.

Going from A12G G59A A73G A91G to A12G G65C, the “polymerase ribozyme fitness (log ratio)” value falls from -2.71 to no more than -4.2.

A12G G65C G94A G136U G143U and A12G G68A G83A C116U cannot be ordered by “polymerase ribozyme fitness (log ratio)” value: no more than -4.2 for the first, no more than -4.2 for the second.

Compared with A12G G70A C85U C105G C116A, A12G G70A C118U is higher in “polymerase ribozyme fitness (log ratio)” value: no more than -4.2 for the first, -3.56 for the second.

Going from A12G G80A C118U A119C A120G G143U to A12G G83A G126U U134C U148G, the “polymerase ribozyme fitness (log ratio)” value falls from -3.12 to no more than -4.2.

Going from A12G G88C to A12G G92A U127A U139A G143A, the “polymerase ribozyme fitness (log ratio)” value falls from -3.71 to no more than -4.2.

A12G G92A U127G C132U G136U U146C and A12G G92C A107G G133U cannot be ordered by “polymerase ribozyme fitness (log ratio)” value: no more than -4.2 for the first, no more than -4.2 for the second.

First: A12G G92C G133U
Second: A12G G141C
The “polymerase ribozyme fitness (log ratio)” value of the first is lower: -3.59 for the first, -0.0174 for the second.

Compared with A12G U13A U31A C57A G65A C85G, A12G U13C C38U G58A A73U is higher in “polymerase ribozyme fitness (log ratio)” value: no more than -4.2 for the first, -1.35 for the second.

Going from A12G U13C G34A U55G U90C A91C to A12G U15G C69A C75U A106G A120G, the “polymerase ribozyme fitness (log ratio)” value rises from no more than -4.2 to -2.52.

A12G U31G A40C A52U U56A C93A U146G and A12G U31G C51G U77G U82A C85A cannot be ordered by “polymerase ribozyme fitness (log ratio)” value: no more than -4.2 for the first, no more than -4.2 for the second.

Going from A12G U33C A73G U130G to A12G U44A, the “polymerase ribozyme fitness (log ratio)” value falls from -3.56 to no more than -4.2.

A12G U44A G46A A66C G86A C93A A97U A138G A142G and A12G U44A U45G A49C G50C A52G U53A C57U G84U G133U U139A cannot be ordered by “polymerase ribozyme fitness (log ratio)” value: no more than -4.2 for the first, no more than -4.2 for the second.

Compared with A12G U53A, A12G U53A U56A U82G A91U G117C A142G is lower in “polymerase ribozyme fitness (log ratio)” value: -0.69 for the first, -4.16 for the second.

A12G U55A G70A C76G C85G G88A C149G and A12G U55A G71A G80C cannot be ordered by “polymerase ribozyme fitness (log ratio)” value: no more than -4.2 for the first, no more than -4.2 for the second.

Going from A12G U55A U61G C125G to A12G U56A U144A, the “polymerase ribozyme fitness (log ratio)” value rises from -3.62 to 0.103.

Going from A12G U56G C96U A120U to A12G U61A A73U U77A, the “polymerase ribozyme fitness (log ratio)” value falls from -0.669 to no more than -4.2.

A12G U77A C96A A98G and A12G U78G A89G C95U U109C U145C A150G cannot be ordered by “polymerase ribozyme fitness (log ratio)” value: no more than -4.2 for the first, no more than -4.2 for the second.

A12G U90G C93A G112A and A12G U90G G126A G140C cannot be ordered by “polymerase ribozyme fitness (log ratio)” value: no more than -4.2 for the first, no more than -4.2 for the second.

First: A12G U144G
Second: A12U A16C A28G A40C C93U C99A C125U
The “polymerase ribozyme fitness (log ratio)” value of the first is higher: 0.592 for the first, no more than -4.2 for the second.

Compared with A12U A16U C27A C76U G92U C129A, A12U A17C A22C A142C is higher in “polymerase ribozyme fitness (log ratio)” value: no more than -4.2 for the first, -2.44 for the second.

A12U A17C G59A G67U G83C U130G C132U U134C A150C and A12U A17C U44A G58A U78G C87G A106U A121U cannot be ordered by “polymerase ribozyme fitness (log ratio)” value: no more than -4.2 for the first, no more than -4.2 for the second.

A12U A17U A39C A41C U111G and A12U A17U C18U G34A A64G C87G cannot be ordered by “polymerase ribozyme fitness (log ratio)” value: no more than -4.2 for the first, no more than -4.2 for the second.

A12U A17U G50A U61A and A12U A19C A24C A73G G81C G140U A150C cannot be ordered by “polymerase ribozyme fitness (log ratio)” value: no more than -4.2 for the first, no more than -4.2 for the second.

A12U A19G C57U A60U C87A G124U U134A A137U and A12U A19U A23C A29G C75G G84U U139A cannot be ordered by “polymerase ribozyme fitness (log ratio)” value: no more than -4.2 for the first, no more than -4.2 for the second.

A12U A20C A39G G50U A64U G86A A91C A119U and A12U A20C A47C C72U C85G G117A A150G cannot be ordered by “polymerase ribozyme fitness (log ratio)” value: no more than -4.2 for the first, no more than -4.2 for the second.

Going from A12U A20C C54G G86U A97G A107G A137C C149G to A12U A20G A52U G141A, the “polymerase ribozyme fitness (log ratio)” value rises from no more than -4.2 to -3.17.

A12U A20U C85G C103G C123U G141C and A12U A21U U55A A66U C75G C87A G128U G140A cannot be ordered by “polymerase ribozyme fitness (log ratio)” value: no more than -4.2 for the first, no more than -4.2 for the second.

A12U A22C G88C A122U G143C G152C and A12U A22G A24U C57A U77G G81U C99U G143A cannot be ordered by “polymerase ribozyme fitness (log ratio)” value: no more than -4.2 for the first, no more than -4.2 for the second.

A12U A22U A28U C35A G141A and A12U A22U C27U A40G C69A U78A G94A A115C A119U G124A cannot be ordered by “polymerase ribozyme fitness (log ratio)” value: no more than -4.2 for the first, no more than -4.2 for the second.

A12U A22U U45A U53A U77C C125A G141C and A12U A23G G34C G83C C87U U101G G136A cannot be ordered by “polymerase ribozyme fitness (log ratio)” value: no more than -4.2 for the first, no more than -4.2 for the second.

A12U A23G G42C A60G G68A C79G C93U G141C and A12U A23G G42C A60G G84U A107G U109G cannot be ordered by “polymerase ribozyme fitness (log ratio)” value: no more than -4.2 for the first, no more than -4.2 for the second.

A12U A23G U56A C85G G117C and A12U A23U C69U G83A cannot be ordered by “polymerase ribozyme fitness (log ratio)” value: no more than -4.2 for the first, no more than -4.2 for the second.

In the case of A12U A23U U45C A97G A98U C131G C132U, the “polymerase ribozyme fitness (log ratio)” value is reported as -4.12.
